In the supplement of paper PMC10126150:
Values marked as one replicate rest on one cluster of the flow cell; about a third of the high ones do not repeat.

Tested on: ATP
Experiment: switch fluorescence ratio, 500 uM ATP over buffer (Cy3 cluster intensity, sum of 5 cycles each) (fold (ratio)); higher = stronger signal-on switching upon ATP binding; sequences stand for … in TCGTCGGCAGCGTCAGATGTGTATAAGAGACAGTTTTTTTTTTTTTTTTTTTTTTTTT…TC
Conditions: aptamer strand: ATP DNA aptamer (quencher-CACCTGGGGGAGTATTGCGGAGGAAGG + anchor), 100 nM annealed; ATP concentration: 500 uM; one replicate
Procedure, shortened: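 Values give the fluorescence ratio for each switch-domain sequence, averaged from per-cluster ratios of summed target-cycle to summed buffer-cycle Cy3 intensity. The Cy3-labelled switching-strand clusters sat on a modified Illumina MiSeq flow-cell, were annealed to 100 nM quencher-labelled ATP aptamer, and were imaged in selection buffer, then after 15 min with 500 uM ATP at 22 °C. Five cycles ran with NaOH stripping and re-annealing between them, and clusters outside 100-1000 RFU were excluded.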
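Further: ATP exposure 15 min at 22 °C before imaging.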

CATCACTCTT
switch fluorescence ratio: 0.96

CTCAGCCTAA
switch fluorescence ratio: 1.3

CCATACCAGG
switch fluorescence ratio: 2.5

CCTGACTCCG
switch fluorescence ratio: 3.21

ATTTGTTGGC
switch fluorescence ratio: 1.04

CTCACTCCAC
switch fluorescence ratio: 1.51

GGCGGAGTCA
switch fluorescence ratio: 1.03

AACTGCAAGC
switch fluorescence ratio: 1.53

GGGATGTGG
switch fluorescence ratio: 0.984

CGTCAGGACC
switch fluorescence ratio: 1.13

ATAGGGAAGA
switch fluorescence ratio: 1.07

CAGGTTTCGA
switch fluorescence ratio: 0.955

CTGATTGACA
switch fluorescence ratio: 1.05

GTGATACATG
switch fluorescence ratio: 0.988

GACTGGAAGC
switch fluorescence ratio: 1.03

GTCTTATAAG
switch fluorescence ratio: 0.982

AGGGCGTAAT
switch fluorescence ratio: 1.01

GCGGAGTTAG
switch fluorescence ratio: 1.05

CTGGGCTGTT
switch fluorescence ratio: 1.01

ATGTTAGAGC
switch fluorescence ratio: 1.01

CGTCGGCGCT
switch fluorescence ratio: 1.03

CCAGTCATTG
switch fluorescence ratio: 1.02

TCTATGGCGT
switch fluorescence ratio: 0.992

GCCACCGTGT
switch fluorescence ratio: 1.03

CGTACTGGGA
switch fluorescence ratio: 1.01

CTGTGTTGTC
switch fluorescence ratio: 1.02

CTGAAAGGTT
switch fluorescence ratio: 0.983

TTCGGCAACT
switch fluorescence ratio: 1.05

GCTTAGGCTG
switch fluorescence ratio: 0.948

ACTAGAATTT
switch fluorescence ratio: 0.979

CTTAAAGGT
switch fluorescence ratio: 0.982

AACAATGAGC
switch fluorescence ratio: 1

CGGTGAAACT
switch fluorescence ratio: 1

TAATTATAAA
switch fluorescence ratio: 0.985

GTCGGCATTG
switch fluorescence ratio: 0.951

TGCTCTCGAA
switch fluorescence ratio: 1.07

TACCTGCTGC
switch fluorescence ratio: 1.05

AGGGCGCAAG
switch fluorescence ratio: 1.01

AGAATTAGCT
switch fluorescence ratio: 1.03

CAAGTCGACG
switch fluorescence ratio: 0.978

TACTAGGGGG
switch fluorescence ratio: 0.965

ACGGTGCTGT
switch fluorescence ratio: 0.998

GATTAAAATA
switch fluorescence ratio: 1.07

AGGCAGACGG
switch fluorescence ratio: 1.02

CACGGGAGGG
switch fluorescence ratio: 1.04

ACCATCGA
switch fluorescence ratio: 0.993

TTACGGAAAT
switch fluorescence ratio: 1.05

AAAATGAGGT
switch fluorescence ratio: 0.982

ATAGCACCCG
switch fluorescence ratio: 1.03

AAATTAATCG
switch fluorescence ratio: 1

GGCCAGCTTT
switch fluorescence ratio: 0.96

AAAGCTTTGC
switch fluorescence ratio: 0.948

TTCAACAATT
switch fluorescence ratio: 1.05

GTTTGGCCCG
switch fluorescence ratio: 0.99

GAGAACGGAG
switch fluorescence ratio: 1.04

GCTCGGAATC
switch fluorescence ratio: 2.13

CCGCAGTAGG
switch fluorescence ratio: 3.62

GTGCATGGTG
switch fluorescence ratio: 1.04

CATGGCTTAG
switch fluorescence ratio: 1.01

TATTAATCA
switch fluorescence ratio: 0.978

TACACGCTAG
switch fluorescence ratio: 1.05

CCCGGTAGTT
switch fluorescence ratio: 1.03

AGTGCCTGAT
switch fluorescence ratio: 1.03

GCTATGGCCG
switch fluorescence ratio: 1.04

CGAATAAGAT
switch fluorescence ratio: 1.02

AGTCCACCAT
switch fluorescence ratio: 1.03

CTGTTAAAAG
switch fluorescence ratio: 0.992

CTAGGGCATT
switch fluorescence ratio: 0.985

CCTGCATTCT
switch fluorescence ratio: 1.93

GGATACCCGG
switch fluorescence ratio: 1.07

AAGTTATGCG
switch fluorescence ratio: 0.955

GGGGTTACGT
switch fluorescence ratio: 0.98

TCGGAGTTGC
switch fluorescence ratio: 0.942

GTTGGACGGC
switch fluorescence ratio: 1.07

GTCGTTATCC
switch fluorescence ratio: 1

GAGGCGGTAA
switch fluorescence ratio: 1.36

TTAAGCACTA
switch fluorescence ratio: 1.24

GCAGATTCCG
switch fluorescence ratio: 1.01

TAAGTTGAAA
switch fluorescence ratio: 1.03

GGGCCAGAAC
switch fluorescence ratio: 0.962

TCACTCGATA
switch fluorescence ratio: 1.03

AAACTACCAA
switch fluorescence ratio: 1.09

GCAGTCCCGA
switch fluorescence ratio: 1.04

TCAGATTTGA
switch fluorescence ratio: 0.993

AGTCCGAATG
switch fluorescence ratio: 1.06

AGATGACAAA
switch fluorescence ratio: 1

CCATTCAGGA
switch fluorescence ratio: 1.06

GCCGAGGTA
switch fluorescence ratio: 0.966

GTCGGGCT
switch fluorescence ratio: 0.991

CTTGGCACAG
switch fluorescence ratio: 0.972

TTAGACTTAC
switch fluorescence ratio: 1.28

CGAAATGCTC
switch fluorescence ratio: 2.84

CGGAAATTA
switch fluorescence ratio: 1

GCAAGGGGAG
switch fluorescence ratio: 1.03

GAGAGTAAGG
switch fluorescence ratio: 0.979

TTAGGTACTC
switch fluorescence ratio: 1.1

TACGGCTGCG
switch fluorescence ratio: 1.03

TTAAGTATCT
switch fluorescence ratio: 1.05

CGGGATCT
switch fluorescence ratio: 0.967

TAAGACGGG
switch fluorescence ratio: 1.01

CGAGGCCTTT
switch fluorescence ratio: 0.974
